Data from the supplement of paper PMC4604168 (melanoma cell lines).
Some of the results follow. Most values come without repeats; read them as rough.

Each compound was assayed on RPMI7951 (assay: cell count relative to DMSO control; melanoma cells; higher = more viable cells). Details: library dose: standard library concentration; 72 h.
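Also: cells treated in 1,536-well plates, then fixed and DAPI-stained, with nuclei counted from automated high-throughput microscope images.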

| Structure (SMILES) | cell count |
| --- | --- |
| CN1CCN(c2ccc3nc(-c4c(N)c5c(F)cccc5[nH]c4=O)[nH]c3c2)CC1 [Dovitinib] + COc1cc2ncnc(Nc3ccc(Oc4ccccc4)cc3)c2cc1OC [SrcI1] (first compound 0.5 µM, partner dose 10 µM) | 29.5% |
| CNC(=O)c1cc(Oc2ccc(NC(=O)Nc3ccc(Cl)c(C(F)(F)F)c3)cc2)ccn1 [sorafenib] + COc1cc2ncnc(Nc3ccc(Oc4ccccc4)cc3)c2cc1OC [SrcI1] (first compound 2 µM, partner dose 10 µM) | 29.9% |
| CS(=O)(=O)CCNCc1ccc(-c2ccc3ncnc(Nc4ccc(OCc5cccc(F)c5)c(Cl)c4)c3c2)o1 [lapatinib] + COc1ccc(COc2ccc(Cc3cnc(N)nc3N)cc2OC)cc1 [GW2580] (first compound 4 µM, partner dose 5 µM) | 68.8% |
| CN1CCN(c2ccc3nc(-c4c(N)c5c(F)cccc5[nH]c4=O)[nH]c3c2)CC1 [Dovitinib] + COc1ccc(COc2ccc(Cc3cnc(N)nc3N)cc2OC)cc1 [GW2580] (first compound 0.5 µM, partner dose 5 µM) | 75.1% |
| C[C@@H](Oc1cc(-c2cnn(C3CCNCC3)c2)cnc1N)c1c(Cl)ccc(F)c1Cl [Crizotinib] + c1cc(-c2cnn3cc(-c4ccc(OCCN5CCCCC5)cc4)cnc23)ccn1 [Dorsomorphin] (first compound 1 µM, partner dose 2 µM) | 68.8% |
| C=CCNC1=C2C[C@@H](C)C[C@H](OC)[C@H](O)[C@@H](C)/C=C(\C)[C@H](OC(N)=O)[C@@H](OC)/C=C\C=C(/C)C(=O)NC(=CC1=O)C2=O [Tanespimycin] + Cc1cc([N+](=O)[O-])ccc1NS(=O)(=O)c1cc(Cl)ccc1Cl [FH535] (first compound 0.01 µM, partner dose 5 µM) | 29.7% |
| C=CCNC1=C2C[C@@H](C)C[C@H](OC)[C@H](O)[C@@H](C)/C=C(\C)[C@H](OC(N)=O)[C@@H](OC)/C=C\C=C(/C)C(=O)NC(=CC1=O)C2=O [Tanespimycin] + C[C@]1(c2nc3c(C(N)=O)cccc3[nH]2)CCCN1 [Veliparib] (first compound 0.01 µM, partner dose 7 µM) | 28.3% |

What follows are compounds tested on RVH-421 in the same assay as above. Details: library dose: standard library concentration; 72 h.

| Structure (SMILES) | cell count |
| --- | --- |
| C=CCNC1=C2C[C@@H](C)C[C@H](OC)[C@H](O)[C@@H](C)/C=C(\C)[C@H](OC(N)=O)[C@@H](OC)/C=C\C=C(/C)C(=O)NC(=CC1=O)C2=O [Tanespimycin] + NC(=O)Nc1cc(-c2cccc(F)c2)sc1C(=O)N[C@H]1CCCNC1 [AZD7762] (first compound 0.01 µM, partner dose 0.1 µM) | 120% |
| CS(=O)(=O)CCNCc1ccc(-c2ccc3ncnc(Nc4ccc(OCc5cccc(F)c5)c(Cl)c4)c3c2)o1 [lapatinib] + C=C(c1ccc(C(=O)O)cc1)c1cc2c(cc1C)C(C)(C)CCC2(C)C [Bexarotene] (first compound 4 µM, partner dose 10 µM) | 94.1% |
| CN1CCN(c2ccc3nc(-c4c(N)c5c(F)cccc5[nH]c4=O)[nH]c3c2)CC1 [Dovitinib] + Cn1cncc1[C@@](N)(c1ccc(Cl)cc1)c1ccc2c(c1)c(-c1cccc(Cl)c1)cc(=O)n2C [tipifarnib] (first compound 0.5 µM, partner dose 0.05 µM) | 69.1% |
| CS(=O)(=O)CCNCc1ccc(-c2ccc3ncnc(Nc4ccc(OCc5cccc(F)c5)c(Cl)c4)c3c2)o1 [lapatinib] + Cn1c(Nc2ccc(C(F)(F)F)cc2)nc2cc(Oc3ccnc(-c4ncc(C(F)(F)F)[nH]4)c3)ccc21 [CHIR265] (first compound 4 µM, partner dose 0.4 µM) | 39.3% |
| CS(=O)(=O)CCNCc1ccc(-c2ccc3ncnc(Nc4ccc(OCc5cccc(F)c5)c(Cl)c4)c3c2)o1 [lapatinib] + O=C(O)c1ccc2c(c1)nc(Nc1cccc(Cl)c1)c1ccncc12 [CX4945] (first compound 4 µM, partner dose 2 µM) | 62.8% |
| CNC(=O)c1cc(Oc2ccc(NC(=O)Nc3ccc(Cl)c(C(F)(F)F)c3)cc2)ccn1 [sorafenib] + COc1ccc2c(c1)CCC1C2CCC2(C)C(NCCCCCCN3C(=O)C=CC3=O)CCC12 [U73122] (first compound 2 µM, partner dose 2 µM) | 90.5% |
| CNC(=O)c1cc(Oc2ccc(NC(=O)Nc3ccc(Cl)c(C(F)(F)F)c3)cc2)ccn1 [sorafenib] + c1cc(-c2cnn3cc(-c4ccc(OCCN5CCCCC5)cc4)cnc23)ccn1 [Dorsomorphin] (first compound 2 µM, partner dose 2 µM) | 102% |
| C[C@@H](Oc1cc(-c2cnn(C3CCNCC3)c2)cnc1N)c1c(Cl)ccc(F)c1Cl [Crizotinib] + CC(C)CCN1c2nc(Nc3cc(F)c(O)c(F)c3)ncc2N(C)C(=O)C1C [BID1870] (first compound 1 µM, partner dose 1 µM) | 82.8% |
| C[C@@H](Oc1cc(-c2cnn(C3CCNCC3)c2)cnc1N)c1c(Cl)ccc(F)c1Cl [Crizotinib] + O=C(O)c1ccc2c(c1)nc(Nc1cccc(Cl)c1)c1ccncc12 [CX4945] (first compound 1 µM, partner dose 2 µM) | 69.3% |
| C[C@@H](Oc1cc(-c2cnn(C3CCNCC3)c2)cnc1N)c1c(Cl)ccc(F)c1Cl [Crizotinib] + CN(C)S(=O)(=O)c1ccc2c(c1)/C(=C/c1cc3c([nH]1)CCCC3)C(=O)N2 [SU6656] (first compound 1 µM, partner dose 2 µM) | 77.1% |
| CNC(=O)c1cc(Oc2ccc(NC(=O)Nc3ccc(Cl)c(C(F)(F)F)c3)cc2)ccn1 [sorafenib] + CC(=O)c1c(C)c2cnc(Nc3ccc(N4CCNCC4)cn3)nc2n(C2CCCC2)c1=O [palbociclib] (first compound 2 µM, partner dose 0.2 µM) | 50.1% |
| CNC(=O)c1cc(Oc2ccc(NC(=O)Nc3ccc(Cl)c(C(F)(F)F)c3)cc2)ccn1 [sorafenib] + C=CCn1c(=O)c2cnc(Nc3ccc(N4CCN(C)CC4)cc3)nc2n1-c1cccc(C(C)(C)O)n1 [MK1775] (first compound 2 µM, partner dose 0.1 µM) | 82.2% |
| CN1CCN(c2ccc3nc(-c4c(N)c5c(F)cccc5[nH]c4=O)[nH]c3c2)CC1 [Dovitinib] + CN(NC(=O)CC(=O)NN(C)C(=S)c1ccccc1)C(=S)c1ccccc1 [STA4783] (first compound 0.5 µM, partner dose 0.03 µM) | 19.4% |
| C[C@@H](Oc1cc(-c2cnn(C3CCNCC3)c2)cnc1N)c1c(Cl)ccc(F)c1Cl [Crizotinib] + Clc1ccc(Nc2nnc(Cc3ccncc3)c3ccccc23)cc1 [vatalanib] (first compound 1 µM, partner dose 10 µM) | 61.2% |
| C=CCNC1=C2C[C@@H](C)C[C@H](OC)[C@H](O)[C@@H](C)/C=C(\C)[C@H](OC(N)=O)[C@@H](OC)/C=C\C=C(/C)C(=O)NC(=CC1=O)C2=O [Tanespimycin] + CN(NC(=O)CC(=O)NN(C)C(=S)c1ccccc1)C(=S)c1ccccc1 [STA4783] (first compound 0.01 µM, partner dose 0.03 µM) | 12.3% |
| CS(=O)(=O)CCNCc1ccc(-c2ccc3ncnc(Nc4ccc(OCc5cccc(F)c5)c(Cl)c4)c3c2)o1 [lapatinib] + O=C(O)C(=O)Nc1sc2c(c1C(=O)O)CCNC2 [TCS401] (first compound 4 µM, partner dose 8.33333 µM) | 114% |
| CN1CCN(c2ccc3nc(-c4c(N)c5c(F)cccc5[nH]c4=O)[nH]c3c2)CC1 [Dovitinib] + CC1(C)NC(=O)N(c2ccc([N+](=O)[O-])c(C(F)(F)F)c2)C1=O [nilutamide] (first compound 0.5 µM, partner dose 5 µM) | 102% |
| CS(=O)(=O)CCNCc1ccc(-c2ccc3ncnc(Nc4ccc(OCc5cccc(F)c5)c(Cl)c4)c3c2)o1 [lapatinib] + C[C@@H]1CCN(C(=O)CC#N)C[C@@H]1N(C)c1ncnc2[nH]ccc12 [CP690550] (first compound 4 µM, partner dose 5 µM) | 104% |
| C[C@@H](Oc1cc(-c2cnn(C3CCNCC3)c2)cnc1N)c1c(Cl)ccc(F)c1Cl [Crizotinib] + C[C@@H]1CCN(C(=O)CC#N)C[C@@H]1N(C)c1ncnc2[nH]ccc12 [CP690550] (first compound 1 µM, partner dose 5 µM) | 97% |
| C[C@@H](Oc1cc(-c2cnn(C3CCNCC3)c2)cnc1N)c1c(Cl)ccc(F)c1Cl [Crizotinib] + NC(=O)Nc1cc(-c2cccc(F)c2)sc1C(=O)N[C@H]1CCCNC1 [AZD7762] (first compound 1 µM, partner dose 0.1 µM) | 93.9% |
| CN1CCN(c2ccc3nc(-c4c(N)c5c(F)cccc5[nH]c4=O)[nH]c3c2)CC1 [Dovitinib] + N#Cc1c(O)c2c(-c3ccc(-c4ccccc4O)cc3)csc2[nH]c1=O [A769662] (first compound 0.5 µM, partner dose 10 µM) | 89.9% |
| CN1CCN(c2ccc3nc(-c4c(N)c5c(F)cccc5[nH]c4=O)[nH]c3c2)CC1 [Dovitinib] + C#Cc1cccc(Nc2ncnc3cc(OCCOC)c(OCCOC)cc23)c1 [erlotinib] (first compound 0.5 µM, partner dose 4 µM) | 62.7% |
